# According to the supplement of paper PMC8728848:
# The list shows a part of the results.
# Key:
# Experiment in all cases: glycan array binding signal (z-score within array); higher = stronger binding
# Conditions in all cases: glycan notation: IUPAC condensed, linker removed
# [1] = biological target: GalNAc(b1-4)GlcNAc(b1-2)Man
# Procedure, shortened: (§1)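 Arrays were curated from the Consortium for Functional Glycomics database, 3228 in total, and kept only where the protein sequence was available. Binding is expressed as a within-array Z-score. This score was averaged across arrays of the same protein sequence at different concentrations or buffers and across linkers, and negative values can be read as non-binding.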
# [2] = biological target: GalNAc(b1-4)GlcNAc(b1-2)Man(a1-3)[GalNAc(b1-4)GlcNAc(b1-2)Man(a1-6)]Man(b1-4)GlcNAc(b1-4)GlcNAc
# Procedure, shortened: as §1
# [3] = biological target: GalNAc(b1-4)GlcNAc(b1-3)GalNAc(b1-4)GlcNAc
# Procedure, shortened: as §1
# GalNAc(b1-4)GlcNAc6S = biological target: GalNAc(b1-4)GlcNAc6S
# Procedure, shortened: as §1
# GalNAc(b1-6)GalNAc = biological target: GalNAc(b1-6)GalNAc
# Procedure, shortened: as §1
# GalNAc3S(b1-4)GlcNAc = biological target: GalNAc3S(b1-4)GlcNAc
# Procedure, shortened: as §1
# GalNAc3S(b1-4)GlcNAc3S = biological target: GalNAc3S(b1-4)GlcNAc3S
# Procedure, shortened: as §1
# [4] = biological target: GalNAc3S(b1-4)[Fuc(a1-3)]GlcNAc
# Procedure, shortened: as §1
# GalNAc4S6S(b1-4)GlcNAc = biological target: GalNAc4S6S(b1-4)GlcNAc
# Procedure, shortened: as §1
# GalNAc6S(b1-4)GlcNAc = biological target: GalNAc6S(b1-4)GlcNAc
# Procedure, shortened: as §1
# Glc(a1-4)Glc = biological target: Glc(a1-4)Glc
# Procedure, shortened: as §1
# [5] = biological target: Glc(a1-4)Glc(a1-4)Glc(a1-4)Glc
# Procedure, shortened: as §1
# Glc(a1-6)Glc(a1-6)Glc = biological target: Glc(a1-6)Glc(a1-6)Glc
# Procedure, shortened: as §1
# [6] = biological target: Glc(a1-6)Glc(a1-6)Glc(a1-6)Glc
# Procedure, shortened: as §1
# Glc(b1-4)Glc = biological target: Glc(b1-4)Glc
# Procedure, shortened: as §1
# Glc(b1-6)Glc = biological target: Glc(b1-6)Glc
# Procedure, shortened: as §1
# GlcA(b1-3)Gal = biological target: GlcA(b1-3)Gal
# Procedure, shortened: as §1
# GlcA(b1-3)GlcNAc = biological target: GlcA(b1-3)GlcNAc
# Procedure, shortened: as §1
# GlcA(b1-6)Gal = biological target: GlcA(b1-6)Gal
# Procedure, shortened: as §1
# [7] = biological target: GlcA3S(b1-3)Gal(b1-4)GlcNAc(b1-2)Man
# Procedure, shortened: as §1
# [8] = biological target: GlcA3S(b1-3)Gal(b1-4)GlcNAc(b1-3)Gal(b1-4)Glc
# Procedure, shortened: as §1
# [9] = biological target: GlcNAc(a1-3)Gal(b1-4)GlcNAc
# Procedure, shortened: as §1
# [10] = biological target: GlcNAc(a1-4)Gal(b1-3)GlcNAc
# Procedure, shortened: as §1
# [11] = biological target: GlcNAc(a1-4)Gal(b1-4)GalNAc
# Procedure, shortened: as §1
# [12] = biological target: GlcNAc(a1-4)Gal(b1-4)GlcNAc
# Procedure, shortened: as §1
# [13] = biological target: GlcNAc(a1-4)Gal(b1-4)GlcNAc(b1-3)Gal(b1-4)Glc
# Procedure, shortened: as §1
# [14] = biological target: GlcNAc(a1-4)Gal(b1-4)GlcNAc(b1-3)Gal(b1-4)GlcNAc
# Procedure, shortened: as §1
# [15] = biological target: GlcNAc(a1-4)Gal(b1-4)GlcNAc(b1-3)Gal(b1-4)GlcNAc(b1-3)Gal(b1-4)GlcNAc
# Procedure, shortened: as §1
# [16] = biological target: GlcNAc(a1-4)Gal(b1-4)GlcNAc(b1-3)Gal(b1-4)[Fuc(a1-3)]GlcNAc(b1-3)Gal(b1-4)[Fuc(a1-3)]GlcNAc
# Procedure, shortened: as §1
# [17] = biological target: GlcNAc(a1-6)Gal(b1-4)GlcNAc
# Procedure, shortened: as §1
binder,measurement,setting,value
PX9896A-bth-573-26-573 (Bacteroides thetaiotaomicron) (protein) ETNNLKTKEDMYKYFGTSKSMLTHVYSYMPQGYQLFATSGGIFTEDRYSMRDCASDDGEFGAYADNIQNTNNGNWSPIKTYDDSWTLYRGIRAANSFIAEIAQVDFTRYEHDGQYTNWMKQLKYFPYEARVLRAHYFFELARRYGDIAMPLEVLTEEEANTIGKTPFSEVISFIVSECDDAANNLPDSYVNEPGAEIGRVTKGFAMAVKSKALLYAASKLHNPSMDTELWKKSAKAAIDIINTGLYSLDPQESANNLDSKEVVLMRINGDDSDFEMFNLPLRMTAGTRTSSLIPYSNYPSQNLVDAFETVNGYKVTLENTGWVCEDPAFDPQSPYENRDKRFYRAILANGMSFKDYTIETFKGGADDGIVSQGGSPTGYFLRKYIQEATSFEPGKEAVSKHHWVIYRYAETLLTYAESMVNAFNDVNYTDETYKYSALWAINEVRKNADMPLIPSMGKDEFMERLYNEWRVEFAFEDHRFWDVRRWKIADTTQRELYGVKIEKQADGTFNFYKNLYETRNWRDCMYLYPIPQSELYKNTNLNPQNTGW,glycan array binding signal (z-score),[1],-0.396
same,glycan array binding signal (z-score),[2],0.273
same,glycan array binding signal (z-score),[3],-0.28
same,glycan array binding signal (z-score),GalNAc(b1-4)GlcNAc6S,0.027
same,glycan array binding signal (z-score),GalNAc(b1-6)GalNAc,0.201
same,glycan array binding signal (z-score),GalNAc3S(b1-4)GlcNAc,-0.145
same,glycan array binding signal (z-score),GalNAc3S(b1-4)GlcNAc3S,-0.744
same,glycan array binding signal (z-score),[4],-0.603
same,glycan array binding signal (z-score),GalNAc4S6S(b1-4)GlcNAc,-0.36
same,glycan array binding signal (z-score),GalNAc6S(b1-4)GlcNAc,-0.663
same,glycan array binding signal (z-score),Glc(a1-4)Glc,0.296
same,glycan array binding signal (z-score),[5],-0.34
same,glycan array binding signal (z-score),Glc(a1-6)Glc(a1-6)Glc,0.41
same,glycan array binding signal (z-score),[6],-0.252
same,glycan array binding signal (z-score),Glc(b1-4)Glc,0.069
same,glycan array binding signal (z-score),Glc(b1-6)Glc,-0.484
same,glycan array binding signal (z-score),GlcA(b1-3)Gal,-0.391
same,glycan array binding signal (z-score),GlcA(b1-3)GlcNAc,-0.127
same,glycan array binding signal (z-score),GlcA(b1-6)Gal,-0.573
same,glycan array binding signal (z-score),[7],-0.777
same,glycan array binding signal (z-score),[8],-0.272
same,glycan array binding signal (z-score),[9],0.441
same,glycan array binding signal (z-score),[10],-0.08
same,glycan array binding signal (z-score),[11],0.484
same,glycan array binding signal (z-score),[12],0.48
same,glycan array binding signal (z-score),[13],-0.859
same,glycan array binding signal (z-score),[14],0.138
same,glycan array binding signal (z-score),[15],-0.364
same,glycan array binding signal (z-score),[16],-0.534
same,glycan array binding signal (z-score),[17],-0.484
